# The full ranking holds about 33,000 sequences; the median of “E-score (-0.5 to 0.5)” is about -0.035, and the highest 2% start at about 0.34. This is one part of the list.
# Biological target: T1, Mot3 (UniProt P54785)
# T1 sequence: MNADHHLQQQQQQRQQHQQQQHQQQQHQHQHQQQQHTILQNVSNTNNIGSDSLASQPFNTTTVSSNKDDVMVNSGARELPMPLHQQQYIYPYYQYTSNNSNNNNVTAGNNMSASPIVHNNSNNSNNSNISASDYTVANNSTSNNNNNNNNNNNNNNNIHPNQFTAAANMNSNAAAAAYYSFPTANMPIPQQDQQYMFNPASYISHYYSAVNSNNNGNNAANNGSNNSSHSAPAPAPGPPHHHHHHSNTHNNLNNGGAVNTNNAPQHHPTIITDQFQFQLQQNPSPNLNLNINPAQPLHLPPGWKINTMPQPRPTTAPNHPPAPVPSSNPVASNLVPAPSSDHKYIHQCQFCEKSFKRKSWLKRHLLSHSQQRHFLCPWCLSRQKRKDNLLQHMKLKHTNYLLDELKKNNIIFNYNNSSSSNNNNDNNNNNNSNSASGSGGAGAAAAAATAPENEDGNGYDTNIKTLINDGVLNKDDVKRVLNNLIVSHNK
# Assay: PBM E-score (8-mer binding enrichment) (E-score (-0.5 to 0.5)); higher = stronger / more preferred TF binding; most listed sequences are background and not binding sites
# Details: protein concentration: 200 nM; construct: GST-full length
# How it was run: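 Yeast transcription factors, full-length or as DNA-binding domains, were expressed with a GST tag using PURExpress in vitro transcription/translation. At about 100-200 nM they were applied to universal all-10-mer Agilent arrays, double-stranded by primer extension on fresh or once-stripped slides. Fluorescent anti-GST detected bound protein, and masliner normalised the scans. E-scores for ungapped eight-base words, pooled with reverse complements, came from the Universal PBM Analysis Suite.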
row,Sequence,PBM E-score
1,AACATAAT,0.249
2,ATTATGGC,0.0412
3,CAAAATGA,0.0345
4,GTGGTATA,0.019
5,ACACCACG,-0.00017
6,CAATGAAC,-0.032
7,ACCATGAG,-0.189
8,CTATCGTA,0.136
9,CAATTTTC,-0.068
10,AGATCCTC,-0.299
11,TGAATAAA,0.234
12,GACAGTAA,-0.0736
13,ATGAAGGG,-0.0601
14,CGTTGGGA,-0.263
15,ATCGTTTA,0.125
16,AGCTGGAG,-0.107
17,ATGCGCCC,-0.075
18,CAAGCTAC,0.0688
19,AGGGCTTG,0.103
20,CGGGATAG,-0.244
21,CTACGGAG,-0.217
22,GCCAGACC,-0.203
23,CGACCACA,-0.129
24,GACGCGCC,0.135
25,ACTCGCGA,-0.101

row,Sequence,PBM E-score
1,AGCAGCAG,-0.16
2,GCCCAGGC,0.0913
3,ACTGCAAT,-0.0323
4,ACCACTGG,-0.217
5,CGCCGAAG,-0.21
6,ACAACGAA,0.0333
7,ACAATTCC,-0.0244
8,ATCACGGA,-0.225
9,ACAGCGGT,-0.085
10,GGCGTTAA,0.149
11,GTCAACTA,0.0667
12,ACAGAGCC,-0.0166
13,CCGTGTCG,0.126
14,ACGAGTCT,-0.169
15,CTGGCAGA,-0.06
16,CACCAATC,-0.27
17,CACGTTAG,0.0636
18,CTACGTCA,0.0751
19,AATGACCC,-0.145
20,GAATCAGC,-0.171
21,ATATTGGG,-0.354
22,CCAAAGCG,-0.23
23,CATGTCAA,0.336
24,AGTTAACT,-0.0197
25,CAGGCCAA,0.0583

row,Sequence,PBM E-score
1,ATCTCAAC,0.0941
2,ACAGGGTG,-0.0508
3,CCCTATTA,-0.0975
4,AGAGCGCG,-0.168
5,AATGTCGG,-0.024
6,ACTCGATA,0.11
7,CATCGAAA,-0.148
8,TATCATCA,-0.0719
9,AATACGCG,0.354
10,CCCCTATA,-0.149
11,ACGAAATC,0.00888
12,AGTCGAAC,-0.157
13,AGCGATCG,-0.162
14,CAATCGCC,-0.0892
15,ATCAGCAC,0.118
16,AATTCAAT,0.0469
17,GAACATGC,0.202
18,CCCTCACC,-0.256
19,CGCAAATA,-0.00364
20,GATTTCAC,0.0353
21,GCCGCCAA,-0.242
22,GGGCGTCA,-0.178
23,GCTTTAAA,0.183
24,CCGCGTCG,-0.093
25,AAGAGGGG,-0.181

row,Sequence,PBM E-score
1,ATACATAT,0.359
2,AATGTAAG,0.201
3,ACGCAGGA,0.183
4,GATAATAC,0.0195
5,CAACACAA,0.254
6,ATAACATG,0.36
7,AGCGCTGC,-0.0677
8,ACCCAATA,-0.122
9,CCGACGCA,-0.00548
10,AACCGGAA,-0.109
11,TGGGGTAA,-0.0865
12,AATGGGCT,-0.0612
13,GCGCGGCC,-0.119
14,CATGCGCA,0.0605
15,ACGCCCTG,-0.0695
16,AACCCTAC,0.0104
17,ATTATACG,0.101
18,ATGGACCC,-0.103
19,ACTTGCTG,-0.0624
20,ACGGCCTC,-0.228
21,GTTTACAA,0.336
22,TCCGCCAA,-0.196
23,CTCATTAC,0.257
24,GGCATGCA,0.146
25,GGCTCGTA,0.112

row,Sequence,PBM E-score
1,AATAAACG,0.135
2,AGATATTC,-0.0722
3,ACATCTTG,-0.0667
4,AGCCTCTA,-0.195
5,CCCACCCC,-0.236
6,CAGAGTGC,0.0511
7,AACAGGGA,0.0867
8,CGAATGCA,0.0475
9,AGGAGCAC,-0.115
10,CATGTGTA,0.331
11,AGGCCAAG,-0.167
12,CAGCACCG,-0.204
13,CGGAGATA,-0.157
14,AGTCCAGA,-0.0476
15,AGGAGCTA,-0.0789
16,ATCCCGTA,0.0951
17,AAGGGATC,-0.0928
18,ATCGGGAC,-0.215
19,CGTCTCCA,-0.0393
20,ACAAATAC,0.182
21,CTACCCTA,-0.0964
22,TCCTCTAA,-0.0368
23,TAGGGTGA,-0.116
24,CCAGACAA,-0.209
25,TACTACGA,0.172

row,Sequence,PBM E-score
1,TAACCCGA,-0.0309
2,GACTGCAC,-0.0356
3,GGTCACAC,-0.131
4,ACGACTTA,-0.161
5,CCGAGTAA,0.0451
6,CTGAAGAC,-0.108
7,AAGTGCTG,-0.0462
8,TGATAGAA,0.0235
9,AATGTTGA,0.162
10,GATTCTTA,0.0989
11,AAAGGCTT,-0.0548
12,TCTCCAAA,-0.0729
13,CGCTATCC,-0.215
14,AGGTCTAC,-0.138
15,ACTCATTC,-0.0917
16,GTATATTA,0.25
17,AATTCTGG,0.107
18,CATCGAAG,-0.163
19,ATTCGTGC,0.212
20,GATTCGTA,0.028
21,AACAACCC,0.158
22,CTGTCCTA,-0.0816
23,CCCCTTAG,-0.265
24,ACTAGTCG,-0.0559
25,CGATTGCA,0.133

row,Sequence,PBM E-score
1,ACTCTAAG,-0.24
2,GCTGTTCC,-0.0657
3,ATGCTATG,0.19
4,AAGTTGGC,-0.142
5,ATCAGGGA,-0.198
6,GCCATCCA,-0.192
7,CGTGTGAC,0.0174
8,CCGGAGAA,-0.176
9,ATCTAGTA,0.113
10,GTCCGTAA,-0.0328
11,ACTTATTA,0.149
12,ACCAGTTC,-0.242
13,CATAAGCG,-0.0747
14,CCTTGGCG,-0.0871
15,CGAATAGA,-0.209
16,GCACTCGA,-0.0139
17,CTTCCACC,-0.0763
18,CCGGTACG,-0.199
19,AGGAGTAA,0.0475
20,GAGCTTAA,-0.0706
21,ATGACTGA,-0.11
22,GAACCGCA,-0.0522
